Hit rate of the full screen: of about 48,000 compounds, about 1,200 (2.5%) were called active. Not shown: some 2% with an inconclusive outcome.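 Rule for the calls: active = activation of at least 60% and not above a set upper limit (about 1 call in 100 departs from these limits); inconclusive = activation of 40% to 60%, or above that upper limit; inactive = activation under 40%.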 The list shows a part of the results.
The compounds below were run against Probable G-protein coupled receptor 32 (Homo sapiens) (UniProt O75388) (assay: qHTS for Agonists of Human Resolvin D1 Receptor DRV1). Settings: CHO-K1 GPR32 beta-arrestin PathHunter luminescence, 90 min; at 76.9 µM; stronger effect = higher value; zero percent set by DMSO-only wells.
Chain of UniProt O75388 (O75388 whole entry, looked up, the tested form may be a part): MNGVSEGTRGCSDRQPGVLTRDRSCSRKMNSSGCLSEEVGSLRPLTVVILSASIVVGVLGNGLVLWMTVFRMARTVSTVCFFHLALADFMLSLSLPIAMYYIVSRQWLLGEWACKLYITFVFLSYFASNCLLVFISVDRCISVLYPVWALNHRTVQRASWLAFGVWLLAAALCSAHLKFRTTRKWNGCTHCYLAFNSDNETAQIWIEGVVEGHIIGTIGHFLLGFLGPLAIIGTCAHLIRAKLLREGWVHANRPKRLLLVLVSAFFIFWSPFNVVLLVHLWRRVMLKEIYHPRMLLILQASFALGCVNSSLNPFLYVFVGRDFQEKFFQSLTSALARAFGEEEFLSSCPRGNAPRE
Summary of the method: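 Agonism was scored as beta-arrestin recruitment to ProLink-fused GPR32 in stably transfected CHO-K1 cells, giving a chemiluminescent beta-Gal signal; compounds were incubated 90 min at 37 °C.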
Note: 0% is about no effect.

activation, inactive:
O=C(Cc1ccccc1)Nc1sc2c(c1C(=O)Nc1ccccc1Cl)CCCC2 17.4%
COc1cc(NC(=O)c2nc(-c3ccc(Cl)cc3)n3c2CCCCC3)cc(OC)c1OC -6.39%
COc1ccc(CNC(=O)c2ccc(NC(=O)N3CCSc4ncccc43)cc2)c(OC)c1 -0.325%
Cc1ccccc1C(=O)Nc1cccc(C(=O)OCc2cc(=O)n3c(C)csc3n2)c1 -16.3%
CCOc1ccc2oc(=O)cc(CN3CCN(C(=O)c4cccc(Cl)c4)CC3)c2c1 -16.6%
Cc1ccc(C)c(Nc2nn3c(=O)c4ccc(C(=O)N(C)Cc5ccccc5)cc4nc3s2)c1 -9.66%
Clc1cccc(N2CCN(c3nc4ccccc4c4nc(-c5ccccc5)nn34)CC2)c1 -0.255%
CCOc1ccc(-c2nc(CSCC(=O)NCCc3ccccc3)c(C)o2)cc1 -5.89%
CCN1CCN(c2cc(C)c3cc(NC(=O)c4cc(OC)c(OC)c(OC)c4)ccc3n2)CC1 1.77%
COc1cccc(-c2nc(S(=O)(=O)c3ccc(C)cc3)c(NCc3ccccc3)o2)c1 -5.52%
COc1ccc(N2C(=O)CS(=O)(=O)C23C(=O)N(Cc2ccccc2)c2ccccc23)cc1 (configuration not stated) -8.86%
COc1cccc(CNC(=O)CCCn2c(=O)c3cccn3c3ccc(F)cc32)c1OC -11.5%
Cc1cc(C)cc(NC(=O)Cn2c(=O)n(CCC(C)C)c(=O)c3cccnc32)c1 2.5%
CCc1ccc2oc(C(=O)N(Cc3cccc(Cl)c3)Cc3ccco3)c(C)c2c1 3.49%
Cn1c(=O)cc(SCC(=O)NCCc2ccc(Cl)cc2)c2cc(Cl)ccc21 -3.48%
O=C(CSc1nc2ccccc2c2nc(-c3ccccc3)nn12)Nc1ccc(F)cc1 -1.95%
O=C(Cn1c2ncccc2c(=O)n1-c1ccccc1)Nc1cccc(C(F)(F)F)c1 2.99%
COc1ccc(-c2cc(C(C)=O)c(C)n2CCC(=O)Nc2cccc(C)c2C)cc1 -11.1%
CCc1nn2c(=O)cc(COC(=O)c3cccc(NC(=O)COc4ccccc4F)c3)nc2s1 -4.46%
COc1ccc(Cl)cc1NC(=O)c1cc(=O)c2cc(C)cc(C)c2o1 0.382%
Cc1ccc(C)c(NC(=O)Cn2cc(S(=O)(=O)N3CCCC3)c(S(=O)(=O)N3CCCC3)c2)c1 1.56%
Cc1cccc(NC(=O)CSc2nc(C)cc(C)c2C(=O)Nc2ccc(Cl)cc2)c1 17.8%

From PubChem BioAssay AID1346428 (National Center for Advancing Translational Sciences (NCATS), 2018)
